Results from the supplement of paper PMC7125110.
This sample is rich in variants without activity.

B1: glmS ribozyme (parent)
chain: AUAAAAGCGCCAGAACUACAGAAAUGUAGUUGACGAGGAGGAGGUUUAUCGAAUUUUCGGCGGAUGCCUCCAAA

How the values were obtained:
Conditions in all cases: with glucosamine-6-phosphate
[1] = variants of: B1; test: kcat; higher = faster cleavage; RNA array
Procedure, shortened: (§1)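 Barcoded glmS ribozyme variants on sequenced MiSeq chips were transcribed in situ by E. coli RNA polymerase and tracked through a hybridised Cy3 probe at 37 °C. Glucosamine-6-phosphate (40 μM to 10 mM) in HEPES/KCl/Mg(OAc)2 buffer was flowed in, and tiles were imaged over ~14 h. Signals were normalised to baseline and to non-cleaving reference variants; per-tile medians were fit to one- or two-exponential decays to give kobs. kcat and KM came from weighted Michaelis–Menten fits across concentrations.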

[2] = variants of: B1; test: self-cleavage kobs at 40 uM GlcN6P; higher = faster cleavage; RNA array
Procedure, shortened: as §1

[3] = variants of: B1; test: self-cleavage kobs at 160 uM GlcN6P; higher = faster cleavage; RNA array
Procedure, shortened: as §1

[4] = variants of: B1; test: self-cleavage kobs at 2500 uM GlcN6P; higher = faster cleavage; RNA array
Procedure, shortened: as §1

[5] = variants of: B1; test: self-cleavage kobs at 10000 uM GlcN6P; higher = faster cleavage; RNA array
Procedure, shortened: as §1

[6] = variants of: B1; test: self-cleavage kobs at 640 uM GlcN6P; higher = faster cleavage; RNA array
Procedure, shortened: as §1

Variant | kcat [1] [s⁻¹] | self-cleavage kobs at 40 uM GlcN6P [2] [s⁻¹] | self-cleavage kobs at 160 uM GlcN6P [3] [s⁻¹] | self-cleavage kobs at 2500 uM GlcN6P [4] [s⁻¹] | self-cleavage kobs at 10000 uM GlcN6P [5] [s⁻¹] | self-cleavage kobs at 640 uM GlcN6P [6] [s⁻¹]
U54C G62U | < 1e-05 | < 1e-05 | < 1e-05 | < 1e-05 | < 1e-05 | 
A6C A39C G62U |  | < 1e-05 |  | < 1e-05 | < 1e-05 | < 1e-05
A36U C67A | < 1e-05 |  |  |  |  | 
G51U A64C | < 1e-05 | < 1e-05 |  | < 1e-05 |  | < 1e-05
G63U C68U | < 1e-05 |  |  |  | < 1e-05 | 
A6C A14C |  | < 1e-05 | < 1e-05 |  |  | 
G7A G13U A14C A15U G35A U55C A64G C71A |  | < 1e-05 |  |  | < 1e-05 | 
A6U U45G G51C |  | < 1e-05 |  | < 1e-05 |  | 
A6G G35C A39G G40A C61U C70A |  | < 1e-05 |  |  |  | 
G7A C34U |  | < 1e-05 | < 1e-05 | < 1e-05 | < 1e-05 | < 1e-05
G7A G35A |  | < 1e-05 | < 1e-05 | < 1e-05 | < 1e-05 | < 1e-05
A36U A53G | < 1e-05 |  | < 1e-05 |  |  | 
C34U A53U | < 1e-05 | < 1e-05 |  | < 1e-05 | < 1e-05 | < 1e-05
U56A C61A | < 1e-05 |  |  |  |  | 
A6U A33U U49C G59U |  | < 1e-05 |  | < 1e-05 |  | < 1e-05
G37U U45G | < 1e-05 |  |  |  | < 1e-05 | < 1e-05
G7A G13A |  | < 1e-05 | < 1e-05 |  | < 1e-05 | < 1e-05
G7A G13C |  | < 1e-05 |  |  | < 1e-05 | 
A6G U30A |  | < 1e-05 |  |  |  | 
U47A G51A | < 1e-05 | < 1e-05 |  |  |  | < 1e-05
U49A C50U | < 1e-05 | < 1e-05 |  |  |  | 
A6C U54C U55C |  | < 1e-05 |  |  |  | 
U30A U49A | < 1e-05 | < 1e-05 | < 1e-05 |  |  | 
G41C U69C | < 1e-05 | < 1e-05 | < 1e-05 |  |  | 
U30C U46C | < 1e-05 |  |  |  |  | 

Variant | kcat [1] [s⁻¹] | self-cleavage kobs at 40 uM GlcN6P [2] [s⁻¹] | self-cleavage kobs at 160 uM GlcN6P [3] [s⁻¹] | self-cleavage kobs at 2500 uM GlcN6P [4] [s⁻¹] | self-cleavage kobs at 10000 uM GlcN6P [5] [s⁻¹] | self-cleavage kobs at 640 uM GlcN6P [6] [s⁻¹]
A6G G35A C67U U69A |  | < 1e-05 | < 1e-05 | < 1e-05 | < 1e-05 | < 1e-05
A6C A33U G60A |  | < 1e-05 |  |  | < 1e-05 | 
A6C U47A G51U |  | < 1e-05 |  | < 1e-05 |  | 
A6G G59U |  | < 1e-05 | < 1e-05 | < 1e-05 | < 1e-05 | < 1e-05
G7A A15U G32C |  | < 1e-05 |  |  |  | < 1e-05
A6C G37C G63A |  | < 1e-05 |  |  | < 1e-05 | 
A6C G7C C11G U55G |  | < 1e-05 |  |  | < 1e-05 | 
G37C A52U | < 1e-05 | < 1e-05 | < 1e-05 |  | < 1e-05 | 
A6G G7A |  | < 1e-05 | < 1e-05 | < 1e-05 | < 1e-05 | < 1e-05
A6G A14U U55G C68G |  | < 1e-05 |  |  |  | 
A6U G32C G59A |  | < 1e-05 |  |  | < 1e-05 | 
G38A | < 1e-05 |  |  |  |  | 
G38C | < 1e-05 |  | < 1e-05 |  |  | 
A48G A52U | < 1e-05 | < 1e-05 | < 1e-05 |  |  | 
G7A G43U G60A |  | < 1e-05 |  |  |  | < 1e-05
A36U G37U | < 1e-05 |  |  |  |  | 
A6G G37A |  | < 1e-05 | < 1e-05 |  |  | 
A6C G51U |  | < 1e-05 | < 1e-05 |  | < 1e-05 | < 1e-05
A6C C58A |  | < 1e-05 | < 1e-05 |  | < 1e-05 | 
G32A A33C C70G | < 1e-05 |  |  | < 1e-05 |  | 
C58G G62C | < 1e-05 | < 1e-05 |  |  |  | 
A6U G43U G59U |  | < 1e-05 |  |  |  | 
A6G U47A U49A G63U |  | < 1e-05 |  |  | < 1e-05 | 
A6U A33U |  | < 1e-05 |  | < 1e-05 | < 1e-05 | < 1e-05
